Test results published in article PMC4336329 (PLoS ONE, 2015).
Screen size: about 310,000 compounds; about 2,200 (0.71%) showed an effect of 50% or more. The effect is printed as a negative number. The list shows a part of the results.

biological target: human ether-à-go-go-related gene (hERG) potassium channel (human, UniProt Q12809); assay: primary screen, population patch clamp on CHO cells stably expressing hERG
Sequence (Q12809 whole entry, looked up): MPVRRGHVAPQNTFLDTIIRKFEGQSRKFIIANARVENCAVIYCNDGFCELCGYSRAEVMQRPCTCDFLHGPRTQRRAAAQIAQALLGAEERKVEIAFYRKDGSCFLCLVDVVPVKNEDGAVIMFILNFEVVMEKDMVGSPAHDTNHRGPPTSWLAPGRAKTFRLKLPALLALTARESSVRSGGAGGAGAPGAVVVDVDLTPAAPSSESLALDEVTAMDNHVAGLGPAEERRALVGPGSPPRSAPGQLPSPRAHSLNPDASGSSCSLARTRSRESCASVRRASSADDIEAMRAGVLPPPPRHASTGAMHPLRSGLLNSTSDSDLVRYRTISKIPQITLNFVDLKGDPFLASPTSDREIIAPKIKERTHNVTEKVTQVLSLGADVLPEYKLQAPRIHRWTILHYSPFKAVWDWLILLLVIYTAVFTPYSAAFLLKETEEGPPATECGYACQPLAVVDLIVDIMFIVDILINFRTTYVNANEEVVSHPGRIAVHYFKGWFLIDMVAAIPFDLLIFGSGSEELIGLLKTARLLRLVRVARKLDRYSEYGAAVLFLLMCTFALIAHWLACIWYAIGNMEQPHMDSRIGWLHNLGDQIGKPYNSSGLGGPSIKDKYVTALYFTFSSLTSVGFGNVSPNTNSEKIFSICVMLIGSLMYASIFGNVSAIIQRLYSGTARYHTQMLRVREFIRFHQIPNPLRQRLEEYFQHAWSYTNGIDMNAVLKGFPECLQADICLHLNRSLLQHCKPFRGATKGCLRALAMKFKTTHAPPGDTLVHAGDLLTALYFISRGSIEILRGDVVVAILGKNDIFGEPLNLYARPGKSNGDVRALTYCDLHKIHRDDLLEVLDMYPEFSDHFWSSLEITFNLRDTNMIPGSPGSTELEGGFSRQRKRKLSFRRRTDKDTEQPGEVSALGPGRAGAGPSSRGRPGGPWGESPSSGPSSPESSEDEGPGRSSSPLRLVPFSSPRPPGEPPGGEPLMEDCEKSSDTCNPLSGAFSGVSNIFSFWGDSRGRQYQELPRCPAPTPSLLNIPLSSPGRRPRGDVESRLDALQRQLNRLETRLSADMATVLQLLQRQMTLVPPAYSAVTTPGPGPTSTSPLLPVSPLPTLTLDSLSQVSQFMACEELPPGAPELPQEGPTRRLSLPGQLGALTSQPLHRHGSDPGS

Compound	hERG current change (%, negative = inhibition) at 1uM [%]
O=S(=O)(Nc1ccc(-n2cnnn2)cc1)c1ccc(Cl)cc1	-0.356
Clc1ccc(NC2=NCCCS2)cc1Cl	13.8
CC(OC(=O)c1ccccn1)C(=O)Nc1ccc(C(F)(F)F)cc1 (stereo not drawn)	10.3
CC(C)N(CC(N)=O)c1ccc(S(=O)(=O)N2CCCC2)cn1	-6.43
O=C(NCC(c1ccco1)N1CCCC1)c1cccc(S(=O)(=O)N2CCOCC2)c1 (stereo not drawn)	4.06
O=C(c1ccccc1)N1CC(COc2ccccc2)OC(c2ccco2)O1 (stereo not drawn)	-2.67
Cc1ccc(N(C(=O)Cn2nnc(-c3ccc(F)cc3)n2)C(C(=O)NC(C)(C)C)c2ccncc2)cc1 (stereo not drawn)	10
CN(c1ccccc1)S(=O)(=O)c1cccc(NC(=O)Cn2cnc3c2c(=O)n(C)c(=O)n3C)c1	3.38
COc1ccccc1/C=C/C(=O)N1CCCC1	11
CC(C)(C)NS(=O)(=O)c1ccc(CCC(=O)N2CCCC2)cc1	16.5
COc1ccc(S(=O)(=O)NC2CC(C)(C)NC(C)(C)C2)cc1C(C)C	10.3
O=C1C2CC=C(Cl)CC2C(=O)N1CN(Cc1ccco1)CN1C(=O)C2CC=C(Cl)CC2C1=O (stereo not drawn)	11.3
COCCNc1nc(C)cc(-c2cc(C(=O)NC3CCCC3)on2)n1	5.78
Cc1cccn2c(=O)c3cc(C(=O)NC4CCCCC4)c(=N)n(CCN4CCOCC4)c3nc12	-51.7
COc1ccc(N=C2C(=Nc3ccc(OC)cc3)N(c3ccc(OC)cc3)C(=S)N2C(=O)c2ccc(OC)cc2)cc1	-9.35
CSc1ccccc1NC(=O)CSCc1ccc(Br)cc1	6.37
CCOC(=O)c1[nH]c(C)c(C(=O)OCC(=O)N2CCc3ccccc32)c1C	5.29
O=C(CCC(=O)N1CCOc2ccccc21)Nc1ccc(F)cc1F	7.61
COc1cc(C2NC(=O)NC(C)=C2C(=O)OCc2ccc(C)cc2)cc(OC)c1O (stereo not drawn)	-4.75

Compound	hERG current change (%, negative = inhibition) at 1uM [%]
Cc1cc(=O)[nH]c(SCC(=O)Nc2ccc(Cl)cn2)n1	12.7
CN(C)C(=O)c1cc(Br)ccc1Cl	14.3
COCc1nnc(NC(=O)CS(=O)(=O)Cc2ccccc2)s1	18.6
O=C(CN1CCN(c2ccccc2)CC1)NC(=O)NCc1ccco1	15.3
O=C(Nc1ccccc1OC(F)F)C1CC(=O)N(Cc2ccccc2)C1 (stereo not drawn)	15.6
Cc1ccc2c(CN3CCN(Cc4ccccc4)CC3)cc(=O)oc2c1C	-5.81
CCOC(=O)CCSc1nc(C)c2cc(C)ccc2n1	13.7
CC1=NN(C(=O)c2ccc(Br)cc2)C(O)(c2ccccc2)C1 (stereo not drawn)	11.3
CCCn1nc(NS(=O)(=O)c2ccccc2)c2cc3ccccc3nc21	1.03
COC(=O)C1CCN(C(=O)c2ccc3nccnc3c2)CC1	7.4
CCN(CC)S(=O)(=O)c1ccc2c(c1)c(=O)c(C(=O)NCc1cccs1)cn2C	13.7
CCOc1ccc(OCCC(=O)N2CCN(S(=O)(=O)c3ccc(OCC)cc3)CC2)cc1	1.22
Cc1cccc(NC(=S)NNC(=O)c2csc(C(C)C)c2)c1	-3.48
CCCCN(C(=O)c1cc(CC)c(C)s1)c1c(N)n(CCC)c(=O)[nH]c1=O	-10.8
N#CCc1cccnc1Sc1ccc(Cl)cc1	9.12
CN(C)CCCNCCNC(=O)/C=N\O.Cl	-46.7
O=C(O)c1ccccc1-c1ccccc1C(=O)Nc1cccc(O)c1	10.4
CCOC(=O)Cn1c(=O)cc(C)c2ccccc21	14.7
Fc1ccc(NC(=S)NCc2ccccc2Cl)cc1	12

Compound	hERG current change (%, negative = inhibition) at 1uM [%]
CCC(=O)Nc1nnc(SCc2cccc(F)c2)s1	6.14
COC(=O)c1cc(S(=O)(=O)N2CCN(C3CCCCC3)CC2)c[nH]1	-1.64
CCNc1nc(NC(C)C)nc(ON=C(C)C)n1	6.83
CCOc1ccc(N2C(=O)CC(N(Cc3ccco3)C(=O)CC)C2=O)cc1 (stereo not drawn)	-3.5
NS(=O)(=O)c1cccc(NC(=O)CCS(=O)(=O)c2ccc(Cl)cc2)c1	10.3
C/C=C/C1=CC(=O)C[C@H](c2ccc(OC)c(OC)c2)C1	10.2
COc1ccccc1CNC(=O)COc1ccccc1C	12.1
COc1ccc(Nc2c3c(nc4c(-c5ccccc5)c(C)nn24)CCC3)cc1	0.598
N#Cc1nc(Cc2ccccc2)oc1NCCc1ccccc1	9.75
Cc1nn(-c2ccccc2)c(Cl)c1C(=O)NCCCCNC(=O)c1c(C)nn(-c2ccccc2)c1Cl	0.0235
COc1ccccc1Oc1ccc(NC(=O)c2ccccc2C)cc1	15.8
COc1ccccc1CNC(=O)CCNS(=O)(=O)c1ccc2c(c1)oc(=O)n2C	8.35
Cc1cccc(N2C(=O)NC(=O)/C(=C\C=C\c3ccco3)C2=O)c1	15.4
Cc1cc(C)cc(N(CC(=O)NCC2CCCO2)C(=O)CN2C(=O)COc3ccccc32)c1 (stereo not drawn)	-9.77
CC(=O)c1ccc(NC(=O)Nc2ccc(S(=O)(=O)N3CCCC3)cc2)cc1	17.7
O=C(Nc1ccc2cccnc2c1)c1ccc(Br)cc1	17.7
O=C(O)C1CCN(c2nc(-c3ccccc3)nc3c2oc2ccccc23)CC1	-15
COc1ccc(NC(=O)CN(C)CC(=O)Nc2ccc(Cl)cc2[N+](=O)[O-])cc1	-11.1
Cc1ccc(-c2nc(SCC(=O)N(C)c3c(N)n(Cc4ccccc4)c(=O)[nH]c3=O)n[nH]2)cc1	15.9
